Experimental data taken from article PMC7819943, “Rice protein-binding microarrays: a tool to detect cis-acting elements near promoter regions in rice”.
The other results are listed elsewhere or left out.

Each sequence was assayed against T1, OsWOX13 (Oryza sativa, UniProt Q5QMM3 1-267) (assay: protein-binding microarray (RPBM); PBS, 2% BSA, 51.3 ng/ul salmon testes DNA, 50 uM zinc acetate, 200 nM TF, 25 C, 1 h; high values mean tight binding). Details: protein: recombinant; tags: N-terminal polyhistidine and DsRed monomer fusion (pET32a); label: CyDye5-dUTP incorporated in the synthesized complementary strand; 3' TTTTT single-stranded linker to array surface; dsDNA, one strand shown.
T1 sequence: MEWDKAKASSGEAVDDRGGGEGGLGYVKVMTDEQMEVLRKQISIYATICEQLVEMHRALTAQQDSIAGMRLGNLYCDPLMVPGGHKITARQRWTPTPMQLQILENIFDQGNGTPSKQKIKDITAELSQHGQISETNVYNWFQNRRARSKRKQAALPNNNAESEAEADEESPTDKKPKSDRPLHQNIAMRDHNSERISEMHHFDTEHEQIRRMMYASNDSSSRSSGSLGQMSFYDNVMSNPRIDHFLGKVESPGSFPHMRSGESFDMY
In short: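 Transcription factors, each fused N-terminally to a polyhistidine tag and DsRed, were expressed in E. coli BL21-CodonPlus and purified on Ni–NTA. A custom Agilent array was made double-stranded by primer extension with Cy5-dUTP and blocked with 2% BSA. It was incubated with 200 nM protein in PBS, 2% BSA, salmon testes DNA and 50 µM zinc acetate at 25 °C for 1 h, then washed. The binding signal is per-feature fluorescence intensity (arbitrary units) read on an Axon 4000B scanner.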

| Sequence | binding signal |
| --- | --- |
| GGATGCCAATAGTTATTTGTGATTGTCTATTTAGAATTTCCGGAGTCACCTAGTGCAG | 3970 fluorescence intensity (a.u.) |
| GGTTTCCAATCACGAGAGCGAGCGGCTGCTTGACCATTGACGGAGTCACCTAGTGCAG | 17100 fluorescence intensity (a.u.) |
| TGCACCAATTTGATTGATACCAATTTGCTTTAATTTCGTCCGGAGTCACCTAGTGCAG | 57200 fluorescence intensity (a.u.) |
| TATAAGCTAAAATTTGAATTAAATTTAGAGATGATTTTGACGGAGTCACCTAGTGCAG | 3530 fluorescence intensity (a.u.) |
| GACAATAGGAAAACGATCATCAATCATGACTATCACTGTTCGGAGTCACCTAGTGCAG | 4970 fluorescence intensity (a.u.) |
| AACTTCTAATTTTAACGTGAAACTAAACACAGCCTTATCTCGGAGTCACCTAGTGCAG | 4940 fluorescence intensity (a.u.) |
| ATGCCAAATTTGACTATCAACAACAGGTGCCAGACAGACCCGGAGTCACCTAGTGCAG | 6780 fluorescence intensity (a.u.) |
| AAAATTTATTTTGATAGATATATTTTAATCCAATAGCCTACGGAGTCACCTAGTGCAG | 14200 fluorescence intensity (a.u.) |
| TCGAGATTGATCGACGATATCCCCGGCGGCTTCAGCTTGACGGAGTCACCTAGTGCAG | 23400 fluorescence intensity (a.u.) |
| GATGATATTTGGAAGATTCTGATTAGCCATCTCCTTTAATCGGAGTCACCTAGTGCAG | 4710 fluorescence intensity (a.u.) |
| CCAAATTATCGCTAGTACAGAACTTGTTATCCGTAACGACCGGAGTCACCTAGTGCAG | 7630 fluorescence intensity (a.u.) |
| TGTTTTCCTTTAAATTGATTGCATAGTTAGGTCCGACCAACGGAGTCACCTAGTGCAG | 26400 fluorescence intensity (a.u.) |
| TTTGAATGACATGACTGCAAGACGTGCACGAGGTGATAGGCGGAGTCACCTAGTGCAG | 14100 fluorescence intensity (a.u.) |
| GCCTAATTAAGAACAAATTGCGTGAAATAATATATGTTATCGGAGTCACCTAGTGCAG | 22500 fluorescence intensity (a.u.) |
| AGTATAGACGTTAACAGGTGACTGCTTGAAACTGGGCAGTCGGAGTCACCTAGTGCAG | 5070 fluorescence intensity (a.u.) |
| GGTCAATCAGGACCGTCTATCAGATCAGACGGTTCCGGCTCGGAGTCACCTAGTGCAG | 23400 fluorescence intensity (a.u.) |
| CGTGTGGATTAACTCCCAATTAAGATGGTTTGTCTATTGTCGGAGTCACCTAGTGCAG | 4710 fluorescence intensity (a.u.) |
| TATTAATATTCAATCAAGAGTTATACTAATATATTCCAAACGGAGTCACCTAGTGCAG | 20000 fluorescence intensity (a.u.) |
| AAAATTAATATTATTTAATTTCCTTTAGAAAGAAAACATTCGGAGTCACCTAGTGCAG | 8510 fluorescence intensity (a.u.) |
| CCGGCCCACAAATTAAATGGAATCGCTTGCTGGCCTACGCCGGAGTCACCTAGTGCAG | 3560 fluorescence intensity (a.u.) |
| ATTTGACTTGATTTTGTAATATCGTGACAATTTGGGACGCCGGAGTCACCTAGTGCAG | 21100 fluorescence intensity (a.u.) |

| Sequence | binding signal |
| --- | --- |
| GATTGGTCATAATTATATATATATATTACTTCCTAATCACCGGAGTCACCTAGTGCAG | 6390 fluorescence intensity (a.u.) |
| AACAACATGGATTAATTTAATCAGGTCTTCGCTGTTAAGACGGAGTCACCTAGTGCAG | 9400 fluorescence intensity (a.u.) |
| TTCTAGCGATAAATTAATTAATGCTCCTCTCGCCGCGCCGCGGAGTCACCTAGTGCAG | 13300 fluorescence intensity (a.u.) |
| ATTTGATTGAATGTAGAGATTCTTGTAATAGGATTCTTTGCGGAGTCACCTAGTGCAG | 64700 fluorescence intensity (a.u.) |
| CAGGTTGATTAGTGGGCGATCGATCTGCGTAGAAAAGCAACGGAGTCACCTAGTGCAG | 22900 fluorescence intensity (a.u.) |
| GGTAGCAGGTGATTGGATTGAACCATTGCTCAAATCAAATCGGAGTCACCTAGTGCAG | 11400 fluorescence intensity (a.u.) |
| GGGTCCTTTGAATGATTACAAATGGTAAGTTGGGCCGACGCGGAGTCACCTAGTGCAG | 3160 fluorescence intensity (a.u.) |
| TTCCAAGTGATTTGGTCCGGTTCTTCTTCATCCAGCTGCACGGAGTCACCTAGTGCAG | 3710 fluorescence intensity (a.u.) |
| TTTACATGTTAATTACTGAGCTGTAAACCGCACAAAGTCACGGAGTCACCTAGTGCAG | 9650 fluorescence intensity (a.u.) |
| AAATTTTGACATCAATTAAATGATCATGTATTACCAAAATCGGAGTCACCTAGTGCAG | 21400 fluorescence intensity (a.u.) |
| CAAATACTTCAGTTAATTATGGCGCCGTGGAGTCGCTGTCCGGAGTCACCTAGTGCAG | 7050 fluorescence intensity (a.u.) |
| TTCCAACAGGGCCTAATTGGAAGACGTAGTTTTGGACCGTCGGAGTCACCTAGTGCAG | 17800 fluorescence intensity (a.u.) |
| ACACTAATCTGACAGATGAGGACCAGTTTGCAAAGGCTGACGGAGTCACCTAGTGCAG | 9190 fluorescence intensity (a.u.) |
| TAGATACGGCGGATGTGATTAGTATTCGAGATGACGCACGCGGAGTCACCTAGTGCAG | 3700 fluorescence intensity (a.u.) |
| CAACAAATTTCAAATCTTCAGGAAGCTGTTGAAAACCTTGCGGAGTCACCTAGTGCAG | 3980 fluorescence intensity (a.u.) |
| AACAAATTGAGCGACCTAAAGTGAACTTATTCCTTATTACCGGAGTCACCTAGTGCAG | 8060 fluorescence intensity (a.u.) |
| TGAGTGATGGGCGAAATTACTACTCCTTCGTAATACGATTCGGAGTCACCTAGTGCAG | 3990 fluorescence intensity (a.u.) |
| TTGTATCGTTTTGGTAGGGGATGGGATGTGCTATACGGGGCGGAGTCACCTAGTGCAG | 3180 fluorescence intensity (a.u.) |
| CACACCTCTAATTATAAATTTATAATATCCTTTAGTTCCCCGGAGTCACCTAGTGCAG | 20400 fluorescence intensity (a.u.) |
| ACATAAAATTGATGTTACTGGATTTATCATTAATCAAACTCGGAGTCACCTAGTGCAG | 19700 fluorescence intensity (a.u.) |
| GTCAATCCACTGTCAATTTCTCTTGGTTCTGAATTTCAGTCGGAGTCACCTAGTGCAG | 10200 fluorescence intensity (a.u.) |
